Assay results taken from a compilation of properties of binary mixtures (doi:10.1016/j.molliq.2010.11.001).
The densities may have been worked out from excess volumes.

Assay: xn = mol fraction of the nth substance listed
Details: 101 kPa

CO + CCCCCC[n+]1ccn(CCC#N)c1.[Br-]
x1 = 1
Details | mass density [kg/m3]
293.15 K | 791.1
298.15 K | 786.5
303.15 K | 781.8
308.15 K | 777
313.15 K | 772.3
318.15 K | 769.6
323.15 K | 765.1

CCCCCC[n+]1ccn(CCC#N)c1.[Br-] + CO
mass density [kg/m3]
Details | x2 = 0 | x2 = 0.1822 | x2 = 0.2348 | x2 = 0.3192 | x2 = 0.4059 | x2 = 0.5169 | x2 = 0.592 | x2 = 0.7084 | x2 = 0.8019 | x2 = 0.9011
293.15 K | 1234.9 | 1224.1 | 1220.3 | 1213.5 | – | – | 1180.5 | 1153.9 | 1112.3 | –
298.15 K | 1230.5 | 1219.9 | 1216 | 1209.3 | 1201.1 | 1188.4 | 1176.4 | 1149.6 | 1107.6 | 989.2
303.15 K | 1227.2 | 1216.8 | 1212.9 | 1206.2 | 1198.1 | 1185.1 | – | 1145.8 | – | 985.1
308.15 K | 1223.1 | 1213 | 1209.1 | 1202.4 | 1194.2 | – | – | 1141.4 | 1099.3 | 981.1
313.15 K | 1220.4 | 1210.5 | 1206.6 | 1199.9 | 1191.6 | 1178.1 | 1165.9 | 1138 | 1095 | –
318.15 K | 1215.1 | 1205.6 | 1201.8 | 1195.2 | 1187.1 | 1173.5 | – | 1134 | 1090.5 | 973.3
323.15 K | 1211.4 | 1202.2 | 1198.3 | 1191.8 | 1183.7 | 1170 | 1158 | 1130 | 1086.5 | 968.9
